In all, about 3,200 compounds went through this assay and about 300 (9.4%) showed activity. The list shows a part of the results, in another mix than the full data.
System: A673/TR/shEF
Assay: cell viability (LOESS-normalised, relative to median of negative controls) (log2 ratio); higher = more viable cells (less compound effect), active = hit call of the paper (over 3 MAD below the median)
Settings: treatment time: 72 h
Method in brief: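 A673/TR/shEF Ewing sarcoma cells were plated at 1,500 per well in 384-well plates and cultured with or without doxycycline, added 24 h before compounds, to induce EWS-FLI1 shRNA knockdown. Library compounds at two or more concentrations, alongside DMSO controls, were applied for three days. Cell viability was measured by CellTiter-Glo luminescence on an Envision reader. Readings were LOESS-corrected per plate, divided by the median of negative controls and log2-transformed, and hits were wells lying at least three median absolute deviations from the median of all screened wells.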

[1] = 0.25 µM, library screen: screen2, EWS-FLI1 expression: high (no doxycycline)
[2] = 0.25 µM, library screen: screen2, EWS-FLI1 expression: low (doxycycline-induced shRNA knockdown)
[3] = 2.5 µM, library screen: screen2, EWS-FLI1 expression: high (no doxycycline)
[4] = 2.5 µM, library screen: screen2, EWS-FLI1 expression: low (doxycycline-induced shRNA knockdown)
[5] = 0.103 µM, library screen: screen3, EWS-FLI1 expression: high (no doxycycline)
[6] = 0.103 µM, library screen: screen3, EWS-FLI1 expression: low (doxycycline-induced shRNA knockdown)
[7] = 0.308 µM, library screen: screen3, EWS-FLI1 expression: high (no doxycycline)
[8] = 0.308 µM, library screen: screen3, EWS-FLI1 expression: low (doxycycline-induced shRNA knockdown)
[9] = 0.926 µM, library screen: screen3, EWS-FLI1 expression: high (no doxycycline)
[10] = 0.926 µM, library screen: screen3, EWS-FLI1 expression: low (doxycycline-induced shRNA knockdown)
[11] = 2.8 µM, library screen: screen3, EWS-FLI1 expression: high (no doxycycline)
[12] = 2.8 µM, library screen: screen3, EWS-FLI1 expression: low (doxycycline-induced shRNA knockdown)
[13] = 8.3 µM, library screen: screen3, EWS-FLI1 expression: high (no doxycycline)
[14] = 8.3 µM, library screen: screen3, EWS-FLI1 expression: low (doxycycline-induced shRNA knockdown)
[15] = 25 µM, library screen: screen3, EWS-FLI1 expression: high (no doxycycline)
[16] = 25 µM, library screen: screen3, EWS-FLI1 expression: low (doxycycline-induced shRNA knockdown)
[17] = 0.25 µM, library screen: screen1, EWS-FLI1 expression: high (no doxycycline)
[18] = 0.25 µM, library screen: screen1, EWS-FLI1 expression: low (doxycycline-induced shRNA knockdown)
[19] = 2.5 µM, library screen: screen1, EWS-FLI1 expression: high (no doxycycline)
[20] = 2.5 µM, library screen: screen1, EWS-FLI1 expression: low (doxycycline-induced shRNA knockdown)
[21] = 25 µM, library screen: screen2, EWS-FLI1 expression: high (no doxycycline)
[22] = 25 µM, library screen: screen2, EWS-FLI1 expression: low (doxycycline-induced shRNA knockdown)

Nc1ncnc2c1ncn2C1OC(C(=O)NC2CC2)C(O)C1O (stereo not given)
cell viability (log2) [1]: inactive: 0.208
cell viability (log2) [2]: inactive: 0.0695
cell viability (log2) [3]: inactive: 0.136
cell viability (log2) [4]: inactive: 0.0888

CNc1cc(NS(=O)(=O)c2ccc(N)cc2)nc(NC)n1
cell viability (log2) [1]: inactive: 0.178
cell viability (log2) [2]: inactive: 0.0243
cell viability (log2) [3]: inactive: 0.142
cell viability (log2) [4]: inactive: 0.115

CO[C@H]1C[C@@H]2CC[C@@H](C)[C@@](O)(O2)C(=O)C(=O)N2CCCC[C@H]2C(=O)O[C@H]([C@H](C)C[C@@H]2CC[C@@H](O)[C@H](OC)C2)CC(=O)[C@H](C)/C=C(\C)[C@@H](O)[C@@H](OC)C(=O)[C@H](C)C[C@H](C)/C=C/C=C/C=C/1C
cell viability (log2) [5]: active: -0.737
cell viability (log2) [6]: active: -0.644
cell viability (log2) [7]: active: -0.758
cell viability (log2) [8]: active: -0.612
cell viability (log2) [9]: active: -0.692
cell viability (log2) [10]: active: -0.65
cell viability (log2) [11]: active: -0.692
cell viability (log2) [12]: active: -0.756
cell viability (log2) [13]: active: -0.726
cell viability (log2) [14]: active: -0.651
cell viability (log2) [15]: active: -0.719
cell viability (log2) [16]: active: -0.63

COC(=O)C[C@H]1C(C)(C)[C@@H](OC(C)=O)[C@@H]2CC3=C4CC(=O)O[C@@H](c5ccoc5)[C@]4(C)CC[C@@H]3[C@@]1(C)C2=O
cell viability (log2) [17]: inactive: 0.0358
cell viability (log2) [18]: inactive: 0.0144
cell viability (log2) [19]: inactive: 0.0778
cell viability (log2) [20]: inactive: 0.108

CC1=C(C)C(=O)C(CCCCC#CCCCC#CCO)=C(C)C1=O
cell viability (log2) [1]: inactive: 0.148
cell viability (log2) [2]: inactive: 0.178
cell viability (log2) [3]: inactive: 0.112
cell viability (log2) [4]: inactive: 0.155

CC(N)(Cc1ccc(O)cc1)C(=O)O (stereo not given)
cell viability (log2) [1]: inactive: -0.00334
cell viability (log2) [2]: inactive: 0.104
cell viability (log2) [3]: inactive: 0.116
cell viability (log2) [4]: inactive: 0.0957

C#C[C@]1(O)CC[C@H]2[C@@H]3CCc4cc(OC)ccc4[C@H]3CC[C@@]21C
cell viability (log2) [5]: inactive: 0.0245
cell viability (log2) [6]: inactive: 0.0772
cell viability (log2) [7]: inactive: 0.0555
cell viability (log2) [8]: inactive: 0.0124
cell viability (log2) [9]: inactive: 0.0491
cell viability (log2) [10]: inactive: 0.0579
cell viability (log2) [11]: inactive: 0.115
cell viability (log2) [12]: inactive: 0.0315
cell viability (log2) [13]: inactive: 0.13
cell viability (log2) [14]: inactive: -0.0351
cell viability (log2) [15]: inactive: 0.0698
cell viability (log2) [16]: inactive: 0.0968

CC(C)NCC(O)c1ccc(NS(C)(=O)=O)cc1 (stereo not given)
cell viability (log2) [5]: inactive: 0.0973
cell viability (log2) [6]: inactive: 0.11
cell viability (log2) [1]: inactive: 0.208
cell viability (log2) [2]: inactive: 0.0726
cell viability (log2) [7]: inactive: 0.0771
cell viability (log2) [8]: inactive: 0.0613
cell viability (log2) [9]: inactive: 0.124
cell viability (log2) [10]: inactive: 0.123
cell viability (log2) [3]: inactive: 0.245
cell viability (log2) [4]: inactive: -0.00505
cell viability (log2) [11]: inactive: 0.0983
cell viability (log2) [12]: inactive: 0.0513
cell viability (log2) [13]: inactive: 0.0678
cell viability (log2) [14]: inactive: 0.0705
cell viability (log2) [15]: inactive: 0.123
cell viability (log2) [16]: inactive: 0.119

COc1ccc2cccc(CCNC(C)=O)c2c1
cell viability (log2) [5]: inactive: 0.138
cell viability (log2) [6]: inactive: 0.00955
cell viability (log2) [7]: inactive: 0.12
cell viability (log2) [8]: inactive: 0.117
cell viability (log2) [9]: inactive: 0.0565
cell viability (log2) [10]: inactive: 0.0398
cell viability (log2) [11]: inactive: 0.137
cell viability (log2) [12]: inactive: 0.034
cell viability (log2) [13]: inactive: 0.108
cell viability (log2) [14]: inactive: 0.0253
cell viability (log2) [15]: inactive: 0.155
cell viability (log2) [16]: inactive: 0.121

CN(C)CCCCSC(=N)N
cell viability (log2) [1]: inactive: 0.142
cell viability (log2) [2]: inactive: 0.0436
cell viability (log2) [3]: inactive: 0.0893
cell viability (log2) [4]: inactive: 0.0473

CC1=CC(=O)CC(C)(C)[C@@]1(O)/C=C/C(C)=C\C(=O)O
cell viability (log2) [17]: inactive: 0.103
cell viability (log2) [18]: inactive: 0.084
cell viability (log2) [19]: inactive: 0.143
cell viability (log2) [20]: inactive: 0.165

CCN(CC)CCCC(C)Nc1c2ccc(Cl)cc2nc2ccc(OC)cc12 (stereo not given)
cell viability (log2) [21]: active: -4.23
cell viability (log2) [22]: active: -2.71

O=C(O)[C@@H]1C[C@@H](C(=O)O)N1
cell viability (log2) [1]: inactive: 0.176
cell viability (log2) [2]: inactive: 0.14
cell viability (log2) [3]: inactive: 0.0697
cell viability (log2) [4]: inactive: 0.0934

CC1(C)C2CC(=O)O[C@@]3(C)C4=CC(=O)O[C@@H](c5ccoc5)[C@]4(C)CCC3[C@@]2(C)C=C[C@H]1O (stereo not given in full)
cell viability (log2) [17]: inactive: 0.0723
cell viability (log2) [18]: inactive: 0.119
cell viability (log2) [19]: inactive: 0.0233
cell viability (log2) [20]: inactive: 0.0548

O=C(O)P(=O)(O)O
cell viability (log2) (0.025 µM, library screen: screen2, EWS-FLI1 expression: high (no doxycycline)): inactive: 0.177
cell viability (log2) (0.025 µM, library screen: screen2, EWS-FLI1 expression: low (doxycycline-induced shRNA knockdown)): inactive: 0.0342
cell viability (log2) [17]: inactive: 0.113
cell viability (log2) [18]: inactive: 0.056
cell viability (log2) [1]: inactive: 0.16
cell viability (log2) [2]: inactive: 0.0393
cell viability (log2) [19]: inactive: 0.153
cell viability (log2) [20]: inactive: 0.182
cell viability (log2) [3]: inactive: 0.0316
cell viability (log2) [4]: inactive: 0.0945
cell viability (log2) [21]: inactive: 0.139
cell viability (log2) [22]: inactive: 0.0475

COc1ccccc1NC(=O)C1=C(C)NC(=O)NC1c1cccc(Cl)c1 (stereo not given)
cell viability (log2) [17]: inactive: 0.0986
cell viability (log2) [18]: inactive: 0.0367
cell viability (log2) [19]: inactive: 0.0178
cell viability (log2) [20]: inactive: 0.0125

Cn1c(=O)c2[nH]c(-c3ccc(S(=O)(=O)O)cc3)nc2n(C)c1=O
cell viability (log2) [1]: inactive: 0.235
cell viability (log2) [2]: inactive: 0.0873
cell viability (log2) [3]: inactive: 0.0666
cell viability (log2) [4]: inactive: 0.0936
